According to the supplement of paper PMC8728848:
The other results are listed elsewhere or left out.

What was measured:
Test in all cases: glycan array binding signal (z-score within array); higher = stronger binding
Conditions in all cases: glycan notation: IUPAC condensed, linker removed
[1] = target: Gal(a1-3)Gal(b1-4)GlcNAc(b1-2)Man
Outline: (§1)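 Glycan array data came from 3228 arrays in the Consortium for Functional Glycomics database, and only arrays with an available protein sequence were kept. Glycan names were put into IUPAC-condensed notation, and columns mapping to the same glycan were averaged. The binding signal is a within-array Z-score, averaged across arrays of one protein sequence run at different concentrations or buffers and across linkers. A negative Z-score can be read as non-binding.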

[2] = target: Gal(a1-3)Gal(b1-4)GlcNAc(b1-2)Man(a1-3)[Gal(a1-3)Gal(b1-4)GlcNAc(b1-2)Man(a1-6)]Man(b1-4)GlcNAc(b1-4)GlcNAc
Outline: as §1

[3] = target: Gal(a1-3)Gal(b1-4)GlcNAc(b1-3)GalNAc
Outline: as §1

[4] = target: Gal(a1-3)Gal(b1-4)GlcNAc(b1-6)GalNAc
Outline: as §1

[5] = target: Gal(a1-3)Gal(b1-4)[Fuc(a1-3)]GlcNAc
Outline: as §1

[6] = target: Gal(a1-3)Gal(b1-4)[Fuc(a1-3)]GlcNAc(b1-2)Man(a1-3)[Gal(a1-3)Gal(b1-4)[Fuc(a1-3)]GlcNAc(b1-2)Man(a1-6)]Man(b1-4)GlcNAc(b1-4)GlcNAc
Outline: as §1

Gal(a1-3)GalNAc = target: Gal(a1-3)GalNAc
Outline: as §1

[7] = target: Gal(a1-3)[Gal(a1-4)]Gal(b1-4)GlcNAc
Outline: as §1

[8] = target: Gal(a1-4)Gal(b1-3)GlcNAc(b1-2)Man(a1-3)[Gal(a1-4)Gal(b1-3)GlcNAc(b1-2)Man(a1-6)]Man(b1-4)GlcNAc(b1-4)GlcNAc
Outline: as §1

Gal(a1-4)Gal(b1-4)Glc = target: Gal(a1-4)Gal(b1-4)Glc
Outline: as §1

Gal(a1-4)Gal(b1-4)GlcNAc = target: Gal(a1-4)Gal(b1-4)GlcNAc
Outline: as §1

[9] = target: Gal(a1-4)Gal(b1-4)GlcNAc(b1-2)Man(a1-3)[Gal(a1-4)Gal(b1-4)GlcNAc(b1-2)Man(a1-6)]Man(b1-4)GlcNAc(b1-4)GlcNAc
Outline: as §1

[10] = target: Gal(a1-4)Gal(b1-4)GlcNAc(b1-3)Gal(b1-4)Glc
Outline: as §1

Gal(a1-4)GlcNAc = target: Gal(a1-4)GlcNAc
Outline: as §1

Gal(a1-6)Glc = target: Gal(a1-6)Glc
Outline: as §1

Gal(b1-2)Gal = target: Gal(b1-2)Gal
Outline: as §1

Gal(b1-3)Gal = target: Gal(b1-3)Gal
Outline: as §1

Gal(b1-3)Gal(b1-4)GlcNAc = target: Gal(b1-3)Gal(b1-4)GlcNAc
Outline: as §1

Gal(b1-3)GalNAc = target: Gal(b1-3)GalNAc
Outline: as §1

[11] = target: Gal(b1-3)GalNAc(a1-3)[Fuc(a1-2)]Gal(b1-4)Glc
Outline: as §1

[12] = target: Gal(b1-3)GalNAc(a1-3)[Fuc(a1-2)]Gal(b1-4)GlcNAc
Outline: as §1

Gal(b1-3)GalNAc(b1-3)Gal = target: Gal(b1-3)GalNAc(b1-3)Gal
Outline: as §1

[13] = target: Gal(b1-3)GalNAc(b1-3)Gal(a1-4)Gal(b1-4)Glc
Outline: as §1

[14] = target: Gal(b1-3)GalNAc(b1-4)Gal(b1-4)Glc
Outline: as §1

[15] = target: Gal(b1-3)GalNAc(b1-4)[Neu5Ac(a2-3)]Gal(b1-4)Glc
Outline: as §1

Gal(b1-3)GlcNAc = target: Gal(b1-3)GlcNAc
Outline: as §1

[16] = target: Gal(b1-3)GlcNAc(a1-3)Gal(b1-4)GlcNAc
Outline: as §1

[17] = target: Gal(b1-3)GlcNAc(a1-6)Gal(b1-4)GlcNAc
Outline: as §1

Gal(b1-3)GlcNAc(b1-2)Man = target: Gal(b1-3)GlcNAc(b1-2)Man
Outline: as §1

[18] = target: Gal(b1-3)GlcNAc(b1-2)Man(a1-3)[Gal(b1-3)GlcNAc(b1-2)Man(a1-6)]Man(b1-4)GlcNAc(b1-4)GlcNAc
Outline: as §1

[19] = target: Gal(b1-3)GlcNAc(b1-2)Man(a1-3)[Gal(b1-3)GlcNAc(b1-2)Man(a1-6)]Man(b1-4)GlcNAc(b1-4)[Fuc(a1-6)]GlcNAc
Outline: as §1

[20] = target: Gal(b1-3)GlcNAc(b1-2)Man(a1-3)[GlcNAc(b1-4)][Gal(b1-3)GlcNAc(b1-2)Man(a1-6)]Man(b1-4)GlcNAc(b1-4)GlcNAc
Outline: as §1

[21] = target: Gal(b1-3)GlcNAc(b1-2)[Gal(b1-3)GlcNAc(b1-6)]Man(a1-6)[Gal(b1-3)GlcNAc(b1-2)Man(a1-3)]Man(b1-4)GlcNAc(b1-4)GlcNAc
Outline: as §1

[22] = target: Gal(b1-3)GlcNAc(b1-3)Gal(b1-3)GlcNAc
Outline: as §1

[23] = target: Gal(b1-3)GlcNAc(b1-3)Gal(b1-4)Glc
Outline: as §1

[24] = target: Gal(b1-3)GlcNAc(b1-3)Gal(b1-4)GlcNAc
Outline: as §1

[25] = target: Gal(b1-3)GlcNAc(b1-3)Gal(b1-4)GlcNAc(b1-2)Man(a1-3)[Gal(b1-3)GlcNAc(b1-3)Gal(b1-4)GlcNAc(b1-2)Man(a1-6)]Man(b1-4)GlcNAc(b1-4)GlcNAc
Outline: as §1

B1: B725 (Bifidobacterium sp) (protein)
chain: MNNTTRAVIATAAIGALLIPLAGCGNTTTSSGKTELTVWSWDASIDRAAKSFMKANPDITVKVSNVGSTEETYTALNNAAQAGSGLPDVTLIEYLAIPQFVHSDTLMDLSKVYNTAKLKDTFTPGTWNSVNINGGLYAMPADSGPMAYFYDKDVFDKAGISEPPTTWDEFYEDAKKIRATGSYITSDSGDAGLFNAMMWAMGGHAYKLNDDKLTINIAKDKGAQRFMDLWQKMRDEDLIDVHTKTWTDDWMKSLGDGSIASLISGAWMANNLLQGVPQATGKFRVALLPTIDGTPINGEYGGSGLAITKKIPDGKLDAAKKFVEYVTTNDEGIDARVSNGSFPATTKTLNQKDFLAKTTLRNTDGSDNEFFGGQKYNEIFSQAAKDVTGKWEFLPFEPYARSVYNDNMGSFFAGKTSFRTAADNWQKALKDYAKDQGFTVQ
[1]
  glycan array binding signal (z-score): -0.214
[2]
  glycan array binding signal (z-score): -0.195
[3]
  glycan array binding signal (z-score): -0.225
[4]
  glycan array binding signal (z-score): -0.219
[5]
  glycan array binding signal (z-score): -0.225
[6]
  glycan array binding signal (z-score): -0.192
Gal(a1-3)GalNAc
  glycan array binding signal (z-score): -0.22
[7]
  glycan array binding signal (z-score): -0.195
[8]
  glycan array binding signal (z-score): -0.2
Gal(a1-4)Gal(b1-4)Glc
  glycan array binding signal (z-score): -0.205
Gal(a1-4)Gal(b1-4)GlcNAc
  glycan array binding signal (z-score): -0.217
[9]
  glycan array binding signal (z-score): -0.156
[10]
  glycan array binding signal (z-score): 0.277
Gal(a1-4)GlcNAc
  glycan array binding signal (z-score): -0.214
Gal(a1-6)Glc
  glycan array binding signal (z-score): -0.232
Gal(b1-2)Gal
  glycan array binding signal (z-score): -0.224
Gal(b1-3)Gal
  glycan array binding signal (z-score): -0.201
Gal(b1-3)Gal(b1-4)GlcNAc
  glycan array binding signal (z-score): -0.214
Gal(b1-3)GalNAc
  glycan array binding signal (z-score): -0.207
[11]
  glycan array binding signal (z-score): -0.157
[12]
  glycan array binding signal (z-score): -0.218
Gal(b1-3)GalNAc(b1-3)Gal
  glycan array binding signal (z-score): -0.164
[13]
  glycan array binding signal (z-score): -0.21
[14]
  glycan array binding signal (z-score): -0.184
[15]
  glycan array binding signal (z-score): -0.223
Gal(b1-3)GlcNAc
  glycan array binding signal (z-score): -0.1
[16]
  glycan array binding signal (z-score): -0.23
[17]
  glycan array binding signal (z-score): -0.21
Gal(b1-3)GlcNAc(b1-2)Man
  glycan array binding signal (z-score): -0.188
[18]
  glycan array binding signal (z-score): -0.209
[19]
  glycan array binding signal (z-score): -0.217
[20]
  glycan array binding signal (z-score): -0.191
[21]
  glycan array binding signal (z-score): -0.195
[22]
  glycan array binding signal (z-score): -0.194
[23]
  glycan array binding signal (z-score): 0.425
[24]
  glycan array binding signal (z-score): 0.105
[25]
  glycan array binding signal (z-score): 0.041
